Measurements reported in PMC12136788.
This is one part of the list.

T1: UNK ZnF1-3 (human, UniProt Q9C0B0 31-174)
T1 sequence: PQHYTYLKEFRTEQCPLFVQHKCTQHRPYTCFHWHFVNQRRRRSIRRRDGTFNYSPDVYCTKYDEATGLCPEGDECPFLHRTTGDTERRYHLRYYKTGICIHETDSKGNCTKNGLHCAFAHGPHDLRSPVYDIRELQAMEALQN

B1: chr15:98568902:98568903:-_ENSMUSG00000051853_ENSMUST00000053183|mus_mus|FALSE|FALSE (ssRNA)
RNA: GGGAGUUCUACAGUCCGACGAUCCCCAUUUAAAAUGGAACAGAAUCCCUGGCACCCCCAUGUAGAGAACACACACACACACUCACACACACACACACACACACACACACUCACACACACACACACACACACACACACACACAUCAACAGAGGAUUGAGCAUCA
B2: 41988534_41988654_1386_CDS_ENSG00000174197_ENST00000570161|human|control|control (ssRNA)
RNA: GGGAGUUCUACAGUCCGACGAUCCUUAACUGUGCUUCUGGUGACAGCACAGGGCUCCAGAUAGACUACUGGCAUCUUUCCAGUGUCUAAUUUGAACAUUUUAGCUUUAGCAACACCUGAUGGGCUGCUUGGAAGCCAUUUAGACAACAGAGGAUUGAGCAUCA
B3: chr7:75932113:75932114:+_ENSG00000106211_ENST00000248553|hu_hu|hu_hu_hu_mus_False|1_8 (ssRNA)
RNA: GGGAGUUCUACAGUCCGACGAUCCUGCGACCACUCAUCGGGCAACCGGGGCACCCCGAAAGCUUGAUCGAAGAGGCGGCUGUGUGCAGGGUACCAGUCCCGGAAUGGUUCCCAGCUCGGGCUCCGCAGCGAGAAGGGGACGCGCAACAGAGGAUUGAGCAUCA
B4: chr15:63448706:63448707:-_ENSG00000185088_ENST00000411926|hu_mus|FALSE|FALSE (ssRNA)
RNA: GGGAGUUCUACAGUCCGACGAUCAAUCUUGUAGCAACCUGGACAUUUCACAUCCAUGAAGUAAGAAUUUGGGCUCUGAACCAGCCGUUUCUUCUUAUGUUUUUUCUUCUCCUCCUCCAAGGAAGGGUGUAACAGAUCUCUAGCCAACAGAGGAUUGAGCAUCA
B5: chr17:64801638:64801639:+_ENSG00000154229_ENST00000413366|hu_mus|hu_hu_hu_mus_False|18_88 (ssRNA)
RNA: GGGAGUUCUACAGUCCGACGAUCUAUAUAUAUAUAUACAUAUGUACACAUAUGUAGUAAAACCCUAGUUAAACGUGUAAAGUAGCCAUUCAUUUUUAAAAUUACAUCUACAUUAAAAAAGUAAUCUAUCUGAUAGAGUGCCAGCAACAGAGGAUUGAGCAUCA
B6: chr16:94690093:94690094:+_ENSMUSG00000040785_ENSMUST00000117648|mus_hu|mus_mus_mus_hu_True|38_58 (ssRNA)
RNA: GGGAGUUCUACAGUCCGACGAUCGGGCUGGGAUGACGGACACACAGCCUCGAUUCCAGGGGGAAAAAGUCUUAGUCAAUACUAAUUAAAAAGUGUUUUUAUAAUUGGAAAAUCAGAUUACAUCUAUAAAAGAUGAAAAGCAAACAACAGAGGAUUGAGCAUCA
B7: chr7:141438946:141438947:+_ENSG00000106028_ENST00000265304|hu_mus|hu_hu_hu_mus_True|88_98 (ssRNA)
RNA: GGGAGUUCUACAGUCCGACGAUCGACGAAAUACCUGACAGGUCUUCGAAACAUGGCUGGCUUCUGUUUUUCUUACAACCUAAUCUUUAGGCUUUUCCUAAAGGAAAGAAAGAAAAGAGAAAAAUGAUAAAUCAAGAAACUACACAACAGAGGAUUGAGCAUCA
B8: chr10:19624517:19624518:-_ENSMUSG00000020003_ENSMUST00000020182|mus_hu|motif|central (ssRNA)
RNA: GGGAGUUCUACAGUCCGACGAUCUUCGUUGUUCUCACUCCAAGUCACAUCAAACAAACCAUCAUUCCAGUCAAAGCUUCGGAAAAGCCUUAGCCCAGCUUCAUCUGGAUCCAAUAUUAGUAGGGUUCCACAGCCCGCGAUGCCCAACAGAGGAUUGAGCAUCA
B9: chr7:75932113:75932114:+_ENSG00000106211_ENST00000248553|hu_hu|hu_hu_hu_mus_False|78_108 (ssRNA)
RNA: GGGAGUUCUACAGUCCGACGAUCCUGCGACCACUCCUCGGGCAACCGGGGCACCCCGAAGGCCUGGUCGAAGAGGCGGCUGUGUGCAGGGUACCAGUCCCGGAAUGGUUCCCAGCUCGGGCUCCGCAGCAGCGAGAAGGGCACCAACAGAGGAUUGAGCAUCA
B10: chr11:93987321:93987322:+_ENSMUSG00000020859_ENSMUST00000103168|mus_mus|FALSE|FALSE (ssRNA)
RNA: GGGAGUUCUACAGUCCGACGAUCUACAAAGUUACAUUCCGAACCCCAGGGAUUCCAUAAUAGAAAUAAAUACUGAAAUAACUACAUUGCUAAAUGAGCUUUUUACGCAUAGAAAUGAAGCCGUGGCCUCUAAAGACAGCAAAUCAACAGAGGAUUGAGCAUCA
B11: chr14:70237991:70237992:+_ENSG00000100650_ENST00000557154|hu_hu|motif|central (ssRNA)
RNA: GGGAGUUCUACAGUCCGACGAUCCCUGCUUCUUGACCGGCUGUAAGAUUUGCGACUACGGGAACGGGAUCGGCUACGAGACCGGGAGGAACUUCUGGUCCGGGAUCGAGACCUGCUUCUUGACCUACUGUGCCUUUUGCUGCCCAACAGAGGAUUGAGCAUCA
B12: 32436424_32438851_567_CDS_ENSG00000101421_ENST00000217402|human|control|control (ssRNA)
RNA: GGGAGUUCUACAGUCCGACGAUCCCCUACAGGUUUCGAAAUUGCUGUUGAAAUCUCCUCUGCAAGUUCUUGCUGGUCAGCAAUGUCCUGCAUUAACUCAUCAACUUUAUCGAUGUCCAUGUUGUCAUGGGCCGCCUUCAUGGCCAACAGAGGAUUGAGCAUCA
B13: chr12:39763582:39763583:-_ENSG00000139116_ENST00000544797|hu_mus|hu_hu_hu_mus_False|18_18 (ssRNA)
RNA: GGGAGUUCUACAGUCCGACGAUCCUCUAGGAACUGGGCAUUCACUUUGAAUUCAGGAGGGGGCAGCCCGUUUUUAAUCGCUGAGGUCUUUUUCUCAUCAAUACUCUUGAACAGGUGUUUAACAGCUCGAGAGAUGAUGCCCUGCAACAGAGGAUUGAGCAUCA
B14: chr17:49039638:49039639:-_ENSG00000008294_ENST00000262013|hu_mus|FALSE|FALSE (ssRNA)
RNA: GGGAGUUCUACAGUCCGACGAUCCAUUCCGAACCCCAGGGAUUCCAUAAUAGAAAUAAAUACUGAAAUAACUACAUUGCUAAAUGAGCUUUUUACGCAUAGAAAUGAAGCCGUGGCCUCUAAAGACAGCAAAUGGGACAAUUCCAACAGAGGAUUGAGCAUCA

Each binder was assayed against T1, UNK ZnF1-3 (assay: nsRBNS (natural sequence RNA bind-n-seq); RBNS binding buffer (assumed for nsRBNS): 25 mM Tris pH 7.5, 150 mM KCl, 3 mM MgCl2, 0.01% Triton X-100, 500 ug/ml BSA, 20 U/ml SUPERase-In, 4 C; UNK is unkempt and MSI1 is Musashi-1; names of the RNAs are library labels; protein concentration not given here; high values mean tight binding).

Binder	binding signal
B1	1.64 enrichment R
B2	0.468 enrichment R
B3	0.857 enrichment R
B4	0.676 enrichment R
B5	1.61 enrichment R
B6	2.32 enrichment R
B7	0.913 enrichment R
B8	0.887 enrichment R
B9	0.702 enrichment R
B10	1.35 enrichment R
B11	1.19 enrichment R
B12	0.565 enrichment R
B13	1.53 enrichment R
B14	1.24 enrichment R
